B1: His-tagged 4-1BB protein, native (N-glycosylated, PNGase F-untreated) (receptor)
chain: not shown
modifications: N-glycans on N138 and N149 (intact N-glycosylation)
notes: human 4-1BB (CD137/TNFRSF9), recombinant His-tagged protein from Sino Biological; No catalogue number or limits are printed; also called CD137; TNFRSF9; source: bought: Sino Biological, expressed in HEK293 cells
B2: His-tagged 4-1BB protein, deglycosylated with PNGase F (receptor)
chain: not shown
modifications: N-glycans removed by PNGase F (sites N138 and N149)
notes: human 4-1BB (CD137/TNFRSF9), recombinant His-tagged protein from Sino Biological, deglycosylated; Same bought protein as m1 after PNGase F. PNGase F turns the glycosylated asparagines into aspartates; also called deglycosylated 4-1BB; N-glycan-abolished 4-1BB protein; source: bought: Sino Biological, expressed in HEK293 cells; treated with PNGase F under non-reducing conditions

Target: T1, human Fc-tagged 4-1BBL (UniProt P41273 part only)
T1 construct: 4-1BB ligand (4-1BBL/CD137L/TNFSF9), recombinant Fc-tagged protein from Sino Biological; 'human' in the methods describes the Fc tag; The ligand is probably the human extracellular part; No catalogue number is printed; also called 4-1BB ligand; CD137L; source: bought: Sino Biological, expressed in HEK293 cells
Assay: BLI; Octet RED384; His-tagged 4-1BB (native or deglycosylated) loaded on NTA biosensor at 200 nM; single concentration of 4-1BBL (50 mM [sic]) in kinetic buffer; KD calculated on a 1:1 binding ratio
Conditions: both partners purified

Row | Binder | Kd [nM]
1 | B1 | 10
2 | B2 | 11

Source: paper PMC8750214, “N-Glycosylation Facilitates 4-1BB Membrane Localization by Avoiding Its Multimerization” (Cells, 2022)
